Experimental data as given in PubChem BioAssay AID328 (DTP/NCI, 2004).
Toxic doses and inconclusive results are not listed. Some entries of the source have several records that differ or are many. The other results are left out here. An entry can have further records. Values given together repeat one measurement in other runs, samples, wells, individuals or studies. Marks in square brackets tell the records apart. Letters count within one entry. Starred links: 1 amine or outer side, 2 acyl side, 3 side chain; linkers in the order of their positions; H or OH if unused. Positions of bridges follow the written chain, without caps; N, C: chain ends. Non-standard residues stand in square brackets, D forms with d. Residues, ends and D or L forms follow the SMILES beside them. Chains are numbered I, II in the order given. Actinocin(9to1) = Cc1c2oc3c(C)ccc(C(=O)[*:1])c3nc-2c(C(=O)[*:2])c(N)c1=O; Pip(4-oxo) = O=C1CCN[CH](C(=O)O)C1; aThr = C[C@H](O)[C@H](N)C(=O)O; NMeV = CN[CH](C(=O)O)C(C)C; Sar = CNCC(=O)O

Tested on: BDF1 mice, P388 leukemia ip, median survival T/C
Test: NCI In Vivo Anticancer Drug Screen. Data for tumor model P388 Leukemia (intraperitoneal) in B6D2F1 (BDF1) mice
Conditions: endpoint: median survival time, higher = longer survival
Protocol: The antitumor activity of compounds was measured in mice bearing transplantable tumors. Survival or tumor size were measured and the results are expressed as the measurement made in the treated group (T) divided by the measurement made in the vehicle treated control group (C). The tumor model used in this assay is P388 Leukemia (intraperitoneal) in B6D2F1 (BDF1) mice

[1] = dose: 100.0 mg/kg/injection, schedule: Q04DX003 (ip), vehicle: Klucel (hydroxypropylcellulose) (HPC)

Q: C=C1C(=O)O[C@H]2C1[C@H](OC(=O)/C(C)=C\COC(C)=O)C[C@]1(CO1)[C@@H]1[C@H](O)[C@H]3O[C@@]3(C)[C@@H]12 (stereo partly drawn) was tested. Which T/C (dose: 25.0 mg/kg/injection, schedule: Q01DX009 (ip), vehicle: other) did it give?
A: 115 % of control and 161 % of control

Q: Nc1ncnc2c1ccn2C1OC(CO)C(O)C1O (stereo not drawn) was tested. Which T/C (dose: 1.0 mg/kg/injection, schedule: Q02DX005 (ip), vehicle: saline) did it give?
A: 108 % of control and 168 % of control

Q: What about the T/C (dose: 1.0 mg/kg/injection, schedule: Q#A X002 (ip), vehicle: saline) of the same compound?
A: 116 % of control and 166 % of control

Q: And the T/C (dose: 3.5 mg/kg/injection, schedule: Q01DX001 (ip), vehicle: saline)?
A: 109 % of control and 163 % of control

Q: And the T/C (dose: 4.0 mg/kg/injection, schedule: Q01DX001 (ip), vehicle: saline)?
A: 120 % of control and 166 % of control

Q: Which T/C (dose: 225.0 micrograms/kg/injection, schedule: Q04DX003 (ip), vehicle: saline + alcohol) does the source give for CC(C)C1NC(=O)C(N)C(C)OC(=O)C(C(C)C)N(C)C(=O)CN(C)C(=O)C2CC(=O)CCN2C1=O (stereo not drawn) (tested in a mixture with another compound) (H-TV[Pip(4-oxo)][Sar][NMeV]; ester 1-C; configuration not given here) here?
A: 108 % of control and 188 % of control

Q: And the T/C (dose: 300.0 micrograms/kg/injection, schedule: Q04DX003 (ip), vehicle: saline + alcohol)?
A: 123 % of control and 197 % of control

Q: And the T/C (dose: 600.0 micrograms/kg/injection, schedule: Q04DX003 (ip), vehicle: saline + alcohol)?
A: 104 % of control and 159 % of control

Q: With COc1ccc(/C=C/C(=O)c2ccc3c(c2)OCO3)cc1OC as the compound, how does the T/C (dose: 100.0 mg/kg/injection, schedule: Q01DX009 (ip), vehicle: saline with Tween-80) read?
A: 118 % of control and 163 % of control

Q: For CCN(CCNc1ccc(C)c2sc3ccccc3c(=O)c12)CC(C)(C)O, which T/C (dose: 150.0 mg/kg/injection, schedule: Q01DX009 (ip), vehicle: saline) is on record?
A: 109 % of control, 181 % of control, 185 % of control

Q: What about the T/C (dose: 300.0 mg/kg/injection, schedule: Q04DX003 (ip), vehicle: saline) of the same compound?
A: 86 % of control and 190 % of control

Q: O=C1C=CC(=O)O1 (tested in a mixture with another compound) was tested. Which T/C (dose: 25.0 mg/kg/injection, schedule: Q01DX009 (ip), vehicle: saline) did it give?
A: 115 % of control, 177 % of control [sample A] and 100 % of control [sample B]

Q: And the T/C (dose: 100.0 mg/kg/injection, schedule: Q01DX009 (ip), vehicle: saline)?
A: 110 % of control, 189 % of control [sample A] and 91 % of control, 115 % of control [sample B] and 94 % of control [sample C]

Q: And the T/C (dose: 100.0 mg/kg/injection, schedule: Q04DX003 (ip), vehicle: saline)?
A: 120 % of control, 121 % of control [sample A] and 100 % of control, 118 % of control [sample B] and 87 % of control [sample C] and 104 % of control [sample D]

Q: And the T/C (dose: 200.0 mg/kg/injection, schedule: Q04DX003 (ip), vehicle: saline)?
A: 102 % of control, 158 % of control [sample A] and 109 % of control, 116 % of control [sample B] and 91 % of control, 112 % of control [sample C] and 112 % of control [sample D]

Q: With CO[C@H](C(=O)[C@@H](O)[C@@H](C)O)[C@@H]1Cc2cc3cc(OC4CC(OC5CC(O)C(O)C(C)O5)C(O)C(C)O4)c(C)c(O)c3c(O)c2C(=O)[C@H]1OC1CC(OC2CC(OC3CC(C)(O)C(O)C(C)O3)C(O)C(C)O2)C(O)C(C)O1 (stereo partly drawn) as the compound, how does the T/C (dose: 0.38 mg/kg/injection, schedule: Q01DX010 (ip), vehicle: saline) read?
A: 110 % of control and 175 % of control

Q: And the T/C (dose: 0.75 mg/kg/injection, schedule: Q01DX010 (ip), vehicle: saline)?
A: 120 % of control and 165 % of control

Q: For CN(C)c1ncnc2c1ncn2C1OC(CO)C(N)C1O (stereo not drawn), which T/C (dose: 33.0 mg/kg/injection, schedule: Q01DX009 (ip), vehicle: saline) is on record?
A: 100 % of control and 150 % of control

Q: Cc1c2oc3c(C)ccc(C(=O)N[C@@H]4C(=O)N[C@H](C(C)C)C(=O)N5CCC[C@H]5C(=O)N(C)CC(=O)N(C)[C@@H](C(C)C)C(=O)O[C@H]4C)c3nc-2c(C(=O)N[C@@H]2C(=O)N[C@H](C(C)C)C(=O)N3CCC[C@H]3C(=O)N(C)CC(=O)N(C)[C@@H](C(C)C)C(=O)O[C@H]2C)c(N)c1=O (I: [aThr][dV]P[Sar][NMeV] / II: [aThr][dV]P[Sar][NMeV]; ester I:1-I:C, II:1-II:C; linker I:N-II:N via Actinocin(9to1)) was tested. Which T/C (dose: 450.0 micrograms/kg/injection, schedule: Q04DX003 (ip), vehicle: saline + alcohol) did it give?
A: 97 % of control, 115 % of control, 153 % of control

Q: Which T/C (dose: 25.0 mg/kg/injection, schedule: Q04DX003 (ip), vehicle: Klucel (hydroxypropylcellulose) (HPC)) does the source give for CC1OC(=O)C(C(C)C)NC(=O)C(C(C)C)OC(=O)C(C(C)C)NC(=O)C(C)OC(=O)C(C(C)C)NC(=O)C(C(C)C)OC(=O)C(C(C)C)NC(=O)C(C)OC(=O)C(C(C)C)NC(=O)C(C(C)C)OC(=O)C(C(C)C)NC1=O (stereo not drawn) here?
A: 98 % of control and 178 % of control

Q: What does the source list for CC(=O)Nc1ccc(NC(=O)c2ccc([As](O)O)cc2)cc1?
A: T/C (dose: 66.0 mg/kg/injection, schedule: Q04DX003 (ip), vehicle: Klucel (hydroxypropylcellulose) (HPC)): 120 % of control and 155 % of control; T/C [1]: 120 % of control and 161 % of control; T/C (dose: 150.0 mg/kg/injection, schedule: Q04DX003 (ip), vehicle: Klucel (hydroxypropylcellulose) (HPC)): 120 % of control and 150 % of control

Q: CC1CN1CC(O)C(O)CN1CC1C (stereo not drawn) was tested. Which T/C (dose: 0.39 mg/kg/injection, schedule: Q04DX003 (ip), vehicle: saline) did it give?
A: 103 % of control and 154 % of control

Q: How did the T/C (dose: 12.5 mg/kg/injection, schedule: Q04DX003 (ip), vehicle: saline sonified) turn out when Nc1nc(N)c2cc(CNc3ccc(C(=O)NC(CC(=O)O)C(=O)O)cc3)ccc2n1 (stereo not drawn) was run?
A: 122 % of control and 192 % of control

Q: How did the T/C (dose: 3.0 mg/kg/injection, schedule: Q01DX009 (ip), vehicle: saline with Tween-80) turn out when N=c1c2c(C(N)=O)cn(C3OC(CO)C(O)C3O)c2ncn1O (stereo not drawn) was run?
A: 107 % of control and 159 % of control

Q: CCN1C=C/C(=C\C=C/c2cc[n+](CC)c3ccccc23)c2ccccc21 was tested. Which T/C (dose: 1.5 mg/kg/injection, schedule: Q04DX003 (ip), vehicle: saline) did it give?
A: 113 % of control and 158 % of control

Q: Which T/C (dose: 6.0 mg/kg/injection, schedule: Q01DX009 (ip), vehicle: saline with Tween-80) does the source give for CCNC(=NC)c1ccc(NC(=O)c2ccc(C(=O)Nc3ccc(C(=NC)NCC)cc3)cc2)cc1 here?
A: 100 % of control and 200 % of control

Q: For CN(C)c1ccc2nc3ccc(=[N+](C)C)cc-3sc2c1, which T/C (dose: 16.5 mg/kg/injection, schedule: Q04DX003 (ip), vehicle: saline) is on record?
A: 100 % of control, 104 % of control, 154 % of control

Q: For CS(=O)(=O)OCCNC[C@@H](O)[C@@H](O)CNCCOS(C)(=O)=O, which T/C (dose: 50.0 mg/kg/injection, schedule: Q04DX003 (ip), vehicle: saline) is on record?
A: 113 % of control and 186 % of control

Q: For NC(=S)N/N=C/c1ccc(N)cn1, which T/C (dose: 12.5 mg/kg/injection, schedule: Q01DX009 (ip), vehicle: saline with Tween-80) is on record?
A: 100 % of control, 158 % of control, 181 % of control

Q: How did the T/C (dose: 10.0 mg/kg/injection, schedule: Q01DX009 (ip), vehicle: saline with Tween-80) turn out when Cc1cc2c(C(C)C)c(O)c(O)c(C=O)c2c(O)c1-c1c(C)cc2c(C(C)C)c(O)c(O)c(C=O)c2c1O was run?
A: 124 % of control and 150 % of control

Q: How did the T/C [1] turn out when Nc1c(Br)cc2c(c1Br)Cc1cc(Cl)ccc1-2 was run?
A: 87 % of control and 177 % of control

Q: For NC(N)=N/N=C(/c1ccccc1)c1ccc(F)cc1, which T/C (dose: 20.0 mg/kg/injection, schedule: Q01DX009 (ip), vehicle: Klucel (hydroxypropylcellulose) (HPC)) is on record?
A: 118 % of control and 150 % of control

Q: O=S(O)OS(=O)O was tested. Which T/C (dose: 300.0 mg/kg/injection, schedule: Q01DX009 (ip), vehicle: saline) did it give?
A: 95 % of control and 150 % of control

Q: With CC(C)(C)[O][Pb]([c]1ccccc1)([c]1ccccc1)[c]1ccccc1 as the compound, how does the T/C (dose: 1.56 mg/kg/injection, schedule: Q01DX009 (ip), vehicle: saline) read?
A: 109 % of control, 115 % of control, 155 % of control

Q: With O=C1C(NC(=O)C2CCCCC2)=C(N2CC2)C(=O)C(NC(=O)C2CCCCC2)=C1N1CC1 as the compound, how does the T/C (dose: 100.0 mg/kg/injection, schedule: Q01DX010 (ip), vehicle: saline) read?
A: 109 % of control and 186 % of control

Q: What about the T/C (dose: 200.0 mg/kg/injection, schedule: Q01DX009 (ip), vehicle: Klucel (hydroxypropylcellulose) (HPC)) of the same compound?
A: 106 % of control and 155 % of control

Q: What about the T/C (dose: 400.0 mg/kg/injection, schedule: Q01DX009 (ip), vehicle: Klucel (hydroxypropylcellulose) (HPC)) of the same compound?
A: 101 % of control and 170 % of control

Q: How did the T/C (dose: 1.6 mg/kg/injection, schedule: Q01DX005 (iv), vehicle: saline + alcohol) turn out when COC(=O)[C@@]12OC[C@]34[C@H]([C@@H](O)[C@@H]1O)[C@@]1(C)CC(=O)C(O)=C(C)[C@@H]1C[C@H]3OC(=O)[C@H](OC(=O)/C=C(\C)C(C)C)[C@@H]24 was run?
A: 120 % of control and 160 % of control

Q: How did the T/C (dose: 50.0 micrograms/kg/injection, schedule: Q01DX009 (ip), vehicle: saline with Tween-80) turn out when CC1=CC2C(O)(CC(CO)=CC3C4C(C)(C)C4(OC(=O)c4ccccc4)C(OC(=O)c4ccccc4)C(C)C32O)C1=O (stereo not drawn) was run?
A: 98 % of control and 161 % of control

Q: What about the T/C (dose: 400.0 micrograms/kg/injection, schedule: Q01DX009 (ip), vehicle: saline with Tween-80) of the same compound?
A: 121 % of control and 150 % of control

Q: CNC(=O)c1ccc(NC(=O)Nc2cccc(C3=NCCN3)c2)cc1NC(=O)Nc1cccc(C2=NCCN2)c1 was tested. Which T/C (dose: 20.0 mg/kg/injection, schedule: Q01DX009 (ip), vehicle: saline with Tween-80) did it give?
A: 116 % of control and 154 % of control
